Experimental findings from a collection of fitness landscapes (doi:10.1126/science.1257360) are described below.

Sequences and labels used below:
B1: PhoQ; a variant is named by its letters at X, in order, P23837 (parent)
chain: MKKLLRLFFPLSLRVRFLLATAAVVLVLSLAYGMVALIGYSVSFDKTTFRLLRGESNLFYTLAKWENNKLHVELPENIDKQSPTMTLIYDENGQLLWAQRDVPWLMKMIQPDWLKSNGFHEIEADVNDTSLLLSGDHSIQQQLQEVREDDDDAEMTHSVAVNVYPATSRMPKLTIVVVDTIPVELKSSYMVWSWFIYVLSANLLLVIPLLWVAAWWSLRPIEALAKEVRELEEHNRELLNPATTRELTSLVRNLNRLLKSERERYDKYRTTLTDLTHSLKTPLXXLQXXLRSLRSEKMSVSDAEPVMLEQISRISQQIGYYLHRASMRGGTLLSRELHPVAPLLDNLTSALNKVYQRKGVNISLDISPEISFVGEQNDFVEVMGNVLDNACKYCLEFVEISARQTDEHLYIVVEDDGPGIPLSKREVIFDRGQRVDTLRPGQGVGLAVAREITEQYEGKIVAGESMLGGARMEVIFGRQHSAPKDE

This is one part of the list.

Variants of B1 are the subject of the assay. In words: enrichment ratio after two sorts for PhoP signalling (ratio (wild type AVST 3.29)); higher = more functional. The conditions noted are these: with PhoP (E. coli).
Turning to MIHI, the enrichment ratio is ≤ 0.25.
ETYP: the enrichment ratio was ≤ 0.25.
Then VQCG, with ≤ 0.25.
For SWWI, the enrichment ratio is ≤ 0.25.
In the case of IWFK, the enrichment ratio is ≤ 0.25.
As to KKIR, the enrichment ratio was ≤ 0.25.
Take IGIT: the enrichment ratio was ≤ 0.25.
The value for KSTL was ≤ 0.25; that for KFWF was ≤ 0.25.
Consider GIVC, for which the enrichment ratio amounted to 4.3.
On to DPCK, for which the enrichment ratio was ≤ 0.25.
As to ACFE, the enrichment ratio was ≤ 0.25.
With IAQF, the enrichment ratio was ≤ 0.25.
As for GEIS, the enrichment ratio came to 20.8.
Consider NDKY, for which the enrichment ratio was ≤ 0.25.
In the case of LEAW, the enrichment ratio was ≤ 0.25.
Turning to LCWS, the enrichment ratio was ≤ 0.25.
Turning to TIGQ, the enrichment ratio came out at 3.58.
Regarding WMCQ, the enrichment ratio was ≤ 0.25.
Turning to GCPS, the enrichment ratio is ≤ 0.25.
Take THHE: the enrichment ratio is ≤ 0.25.
With IQDW, the enrichment ratio was ≤ 0.25.
The value for DFKR was ≤ 0.25; that for LECA was ≤ 0.25; that for MNLN was ≤ 0.25.
For MPND, the enrichment ratio was ≤ 0.25.
As for PKQH, the enrichment ratio was ≤ 0.25.
On to IFQA, for which the enrichment ratio is ≤ 0.25.
For WHFH, the enrichment ratio was ≤ 0.25.
In the case of PGRY, the enrichment ratio is ≤ 0.25.
As for SIPD, the enrichment ratio was ≤ 0.25.
The value for YMFA was ≤ 0.25; that for LNTP was ≤ 0.25; that for DQHS was ≤ 0.25.
With QHTI, the enrichment ratio was ≤ 0.25.
As for KQKF, the enrichment ratio was ≤ 0.25.
With RFNA, the enrichment ratio was ≤ 0.25.
As to QGHR, the enrichment ratio was ≤ 0.25.
Then SICS, with 16.9; and PQSD, with ≤ 0.25.
Take RTDV: the enrichment ratio is ≤ 0.25.
On to TKID, for which the enrichment ratio is ≤ 0.25.
Regarding RLMC, the enrichment ratio is ≤ 0.25.
Then STWP, with ≤ 0.25; and HYAS, with ≤ 0.25; and RQYH, with ≤ 0.25.
In the case of PIKY, the enrichment ratio is ≤ 0.25.
As for LCRE, the enrichment ratio is ≤ 0.25.
With LEAK, the enrichment ratio was ≤ 0.25.
Take DYGR: the enrichment ratio was ≤ 0.25.
HPSI: the enrichment ratio was ≤ 0.25.
As to YGTN, the enrichment ratio was ≤ 0.25.
Then VPNH, with ≤ 0.25; and CMLF, with 5.01; and ERIR, with ≤ 0.25.
YCNR: the enrichment ratio is ≤ 0.25.
Turning to ACSV, the enrichment ratio came out at 8.72.
Consider QGWN, for which the enrichment ratio was found to be 16.6.
Consider EFKH, for which the enrichment ratio was ≤ 0.25.
The value for TPTV was ≤ 0.25; that for ALPT was ≤ 0.25; that for METH was 8.69.
VFWT: the enrichment ratio is ≤ 0.25.
Turning to ADSC, the enrichment ratio was ≤ 0.25.
In the case of FCHA, the enrichment ratio is ≤ 0.25.
Consider KANN, for which the enrichment ratio was ≤ 0.25.
With PMQE, the enrichment ratio is ≤ 0.25.
With NDLK, the enrichment ratio was ≤ 0.25.
With GCNN, the enrichment ratio is ≤ 0.25.
As for SVWR, the enrichment ratio is ≤ 0.25.
The value for KMVV was ≤ 0.25; that for IEDS was ≤ 0.25.
In the case of RTYY, the enrichment ratio is ≤ 0.25.
Turning to DQSS, the enrichment ratio was ≤ 0.25.
For the variant MEEV, the enrichment ratio is ≤ 0.25.
With KRVA, the enrichment ratio was ≤ 0.25.
The value for FEKM was ≤ 0.25; that for PQCG was ≤ 0.25; that for CNFT was ≤ 0.25.
For NTIS, the enrichment ratio is ≤ 0.25.
For LKEK, the enrichment ratio was ≤ 0.25.
Take QLSE: the enrichment ratio was ≤ 0.25.
Consider YGRL, for which the enrichment ratio is ≤ 0.25.
For the variant RRGT, the enrichment ratio was ≤ 0.25.
For TKGP, the enrichment ratio is ≤ 0.25.
GWFR: the enrichment ratio was ≤ 0.25.
Turning to YRWR, the enrichment ratio is ≤ 0.25.
Then FSEI, with ≤ 0.25; and CFVG, with ≤ 0.25; and KFRA, with ≤ 0.25.
Regarding IAHS, the enrichment ratio is ≤ 0.25.
For AHLH, the enrichment ratio is ≤ 0.25.
NFKH: the enrichment ratio is ≤ 0.25.
Turning to FRMI, the enrichment ratio is ≤ 0.25.
Then FIFL, with ≤ 0.25.
RVLP: the enrichment ratio is ≤ 0.25.
Then PMQH, with ≤ 0.25.
IGEN: the enrichment ratio was ≤ 0.25.
Take ARTR: the enrichment ratio was ≤ 0.25.
In the case of HHFC, the enrichment ratio is ≤ 0.25.
For VGFP, the enrichment ratio was ≤ 0.25.
As for VIYP, the enrichment ratio is ≤ 0.25.
On to QFVE, for which the enrichment ratio is ≤ 0.25.
For LYAF, the enrichment ratio is ≤ 0.25.
Consider RLQS, for which the enrichment ratio was ≤ 0.25.
With MSII, the enrichment ratio amounted to 7.57.
Then DAVC, with ≤ 0.25.
As for DRES, the enrichment ratio is ≤ 0.25.
As for SGEW, the enrichment ratio was ≤ 0.25.
Then PFFG, with ≤ 0.25; and VEGS, with ≤ 0.25.
In the case of HYKF, the enrichment ratio was ≤ 0.25.
With NYYG, the enrichment ratio is ≤ 0.25.
As to RPTS, the enrichment ratio is ≤ 0.25.
The value for ILFL was ≤ 0.25; that for PRTD was ≤ 0.25; that for TTVL was 0.943.
For the variant YQYS, the enrichment ratio was ≤ 0.25.
For TNCT, the enrichment ratio turned out to be 1.63.
Consider HQAL, for which the enrichment ratio was ≤ 0.25.
On to TAYQ, for which the enrichment ratio was found to be 10.6.
The value for HHQM was ≤ 0.25.
In the case of MEEK, the enrichment ratio was ≤ 0.25.
As for TFAL, the enrichment ratio was 6.11.
Consider HPAT, for which the enrichment ratio was ≤ 0.25.
For the variant WAPI, the enrichment ratio was ≤ 0.25.
GDFL: the enrichment ratio is ≤ 0.25.
Take QFSL: the enrichment ratio is ≤ 0.25.
With NFLD, the enrichment ratio was ≤ 0.25.
The value for GNDW was ≤ 0.25.
As to WPYL, the enrichment ratio worked out at 0.766.
Then DATQ, with ≤ 0.25.
For WQQL, the enrichment ratio is ≤ 0.25.
Take IHME: the enrichment ratio was ≤ 0.25.
Then KNFF, with ≤ 0.25.
Then RNAI, with ≤ 0.25.
As to LGKY, the enrichment ratio was ≤ 0.25.
LEYV: the enrichment ratio stood at 3.72.
With DSSA, the enrichment ratio is ≤ 0.25.
Turning to MEMK, the enrichment ratio was ≤ 0.25.
For IICM, the enrichment ratio was ≤ 0.25.
Then GETL, with 6.34.
With DNNM, the enrichment ratio was ≤ 0.25.
Turning to LRQG, the enrichment ratio is ≤ 0.25.
Turning to QESD, the enrichment ratio was ≤ 0.25.
Turning to SIPA, the enrichment ratio came out at 0.817.
For STYE, the enrichment ratio is ≤ 0.25.
DIFW: the enrichment ratio was ≤ 0.25.
The value for WGDY was ≤ 0.25.
On to GMNK, for which the enrichment ratio was ≤ 0.25.
In the case of SECH, the enrichment ratio was found to be 8.6.
FVTV: the enrichment ratio was ≤ 0.25.
Then WGSQ, with ≤ 0.25.
